{"source": "the supplement of paper PMC8728848", "assay_in_all_cases": "glycan array binding signal (z-score within array); higher = stronger binding", "conditions_in_all_cases": "glycan notation: IUPAC condensed, linker removed", "key": {"[1]": {"target": "Gal(b1-4)GlcNAc(b1-3)Gal(b1-4)GlcNAc(b1-3)[Gal(b1-4)GlcNAc(b1-3)Gal(b1-4)GlcNAc(b1-6)]GalNAc", "summary_of_the_method": "(§1)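 Glycan array data came from 3228 arrays in the Consortium for Functional Glycomics database, and only arrays with an available protein sequence were kept. Glycan names were put into IUPAC-condensed notation, and columns mapping to the same glycan were averaged. The binding signal is a within-array Z-score, averaged across arrays of one protein sequence run at different concentrations or buffers and across linkers. A negative Z-score can be read as non-binding.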"}, "[2]": {"target": "Gal(b1-4)GlcNAc(b1-3)Gal(b1-4)GlcNAc(b1-6)[Gal(b1-3)]GalNAc", "summary_of_the_method": "as §1"}, "[3]": {"target": "Gal(b1-4)GlcNAc(b1-3)Gal(b1-4)[Fuc(a1-3)]GlcNAc(b1-3)Gal(b1-4)[Fuc(a1-3)]GlcNAc", "summary_of_the_method": "as §1"}, "[4]": {"target": "Gal(b1-4)GlcNAc(b1-3)GalNAc", "summary_of_the_method": "as §1"}, "[5]": {"target": "Gal(b1-4)GlcNAc(b1-3)[Fuc(a1-3)GlcNAc(b1-6)]Gal(b1-4)Glc", "summary_of_the_method": "as §1"}, "[6]": {"target": "Gal(b1-4)GlcNAc(b1-3)[Gal(b1-4)GlcNAc(b1-6)]Gal(b1-4)GlcNAc", "summary_of_the_method": "as §1"}, "[7]": {"target": "Gal(b1-4)GlcNAc(b1-3)[GlcNAc(b1-6)]Gal(b1-4)GlcNAc", "summary_of_the_method": "as §1"}, "[8]": {"target": "Gal(b1-4)GlcNAc(b1-6)Gal(b1-4)GlcNAc", "summary_of_the_method": "as §1"}, "[9]": {"target": "Gal(b1-4)GlcNAc(b1-6)GalNAc", "summary_of_the_method": "as §1"}, "[10]": {"target": "Gal(b1-4)GlcNAc(b1-6)[Gal(b1-3)]GalNAc", "summary_of_the_method": "as §1"}, "[11]": {"target": "Gal(b1-4)GlcNAc(b1-6)[Gal(b1-4)GlcNAc(b1-3)]GalNAc", "summary_of_the_method": "as §1"}, "Gal(b1-4)GlcNAc6P": {"target": "Gal(b1-4)GlcNAc6P", "summary_of_the_method": "as §1"}, "Gal(b1-6)Gal": {"target": "Gal(b1-6)Gal", "summary_of_the_method": "as §1"}, "Gal3S(b1-3)GalNAc": {"target": "Gal3S(b1-3)GalNAc", "summary_of_the_method": "as §1"}, "Gal3S(b1-3)GlcNAc": {"target": "Gal3S(b1-3)GlcNAc", "summary_of_the_method": "as §1"}, "[12]": {"target": "Gal3S(b1-3)[Fuc(a1-4)]GlcNAc", "summary_of_the_method": "as §1"}, "Gal3S(b1-4)Glc": {"target": "Gal3S(b1-4)Glc", "summary_of_the_method": "as §1"}, "Gal3S(b1-4)Glc6S": {"target": "Gal3S(b1-4)Glc6S", "summary_of_the_method": "as §1"}, "Gal3S(b1-4)GlcNAc": {"target": "Gal3S(b1-4)GlcNAc", "summary_of_the_method": "as §1"}, "[13]": {"target": "Gal3S(b1-4)[Fuc(a1-3)]Glc6S", "summary_of_the_method": "as §1"}, "[14]": {"target": "Gal3S(b1-4)[Fuc(a1-3)]GlcNAc", "summary_of_the_method": "as §1"}, "[15]": {"target": "Gal3S(b1-4)[Fuc(a1-3)]GlcNAc6S", "summary_of_the_method": "as §1"}, "Gal3S4S(b1-4)GlcNAc": {"target": "Gal3S4S(b1-4)GlcNAc", "summary_of_the_method": "as §1"}, "Gal3S6S(b1-4)GlcNAc": {"target": "Gal3S6S(b1-4)GlcNAc", "summary_of_the_method": "as §1"}, "Gal3S6S(b1-4)GlcNAc6S": {"target": "Gal3S6S(b1-4)GlcNAc6S", "summary_of_the_method": "as §1"}, "Gal4S(b1-4)GlcNAc": {"target": "Gal4S(b1-4)GlcNAc", "summary_of_the_method": "as §1"}, "Gal4S6S(b1-4)GlcNAc": {"target": "Gal4S6S(b1-4)GlcNAc", "summary_of_the_method": "as §1"}, "Gal6P(b1-4)GlcNAc": {"target": "Gal6P(b1-4)GlcNAc", "summary_of_the_method": "as §1"}, "Gal6S(b1-3)GlcNAc": {"target": "Gal6S(b1-3)GlcNAc", "summary_of_the_method": "as §1"}, "Gal6S(b1-3)GlcNAc6S": {"target": "Gal6S(b1-3)GlcNAc6S", "summary_of_the_method": "as §1"}, "Gal6S(b1-4)Glc": {"target": "Gal6S(b1-4)Glc", "summary_of_the_method": "as §1"}, "Gal6S(b1-4)Glc6S": {"target": "Gal6S(b1-4)Glc6S", "summary_of_the_method": "as §1"}, "Gal6S(b1-4)GlcNAc": {"target": "Gal6S(b1-4)GlcNAc", "summary_of_the_method": "as §1"}, "Gal6S(b1-4)GlcNAc6S": {"target": "Gal6S(b1-4)GlcNAc6S", "summary_of_the_method": "as §1"}, "GalNAc(a1-3)Gal": {"target": "GalNAc(a1-3)Gal", "summary_of_the_method": "as §1"}, "GalNAc(a1-3)GalNAc": {"target": "GalNAc(a1-3)GalNAc", "summary_of_the_method": "as §1"}, "[16]": {"target": "GalNAc(a1-3)GalNAc(b1-3)Gal(a1-4)Gal(b1-4)Glc", "summary_of_the_method": "as §1"}}, "note": "This is one part of the list."}
{"binder": "DC-ASGPR Long (Homo sapiens) (protein) MTRTYENFQYLENKVKVQGFKNGPLPLQSLLQRLRSGPCHLLLSLGLGLLLLVIICVVGFQNSKFQRDLVTLRTDFSNFTSNTVAEIQALTSQGSSLEETIASLKAEVEGFKQERQAGVSELQEHTTQKAHLGHCPHCPSVCVPVHSEMLLRVQQLVQDLKKLTCQVATLNNNASTEGTCCPVNWVEHQDSCYWFSHSGMSWAEAEKYCQLKNAHLVVINSREEQNFVQKYLGSAYTWMGLSDPEGAWKWVDGTDYATGFQNWKPGQPDDWQGHGLGGGEDCAHFHPDGGWNDDVCQRPYHWVCEAGLGQTSQESH", "values": [{"measurement": "glycan array binding signal (z-score)", "setting": "[1]", "result": -0.014}, {"measurement": "glycan array binding signal (z-score)", "setting": "[2]", "result": -0.334}, {"measurement": "glycan array binding signal (z-score)", "setting": "[3]", "result": -0.154}, {"measurement": "glycan array binding signal (z-score)", "setting": "[4]", "result": -0.428}, {"measurement": "glycan array binding signal (z-score)", "setting": "[5]", "result": -0.207}, {"measurement": "glycan array binding signal (z-score)", "setting": "[6]", "result": -0.435}, {"measurement": "glycan array binding signal (z-score)", "setting": "[7]", "result": -0.167}, {"measurement": "glycan array binding signal (z-score)", "setting": "[8]", "result": -0.534}, {"measurement": "glycan array binding signal (z-score)", "setting": "[9]", "result": 2.73}, {"measurement": "glycan array binding signal (z-score)", "setting": "[10]", "result": -0.345}, {"measurement": "glycan array binding signal (z-score)", "setting": "[11]", "result": -0.447}, {"measurement": "glycan array binding signal (z-score)", "setting": "Gal(b1-4)GlcNAc6P", "result": -0.388}, {"measurement": "glycan array binding signal (z-score)", "setting": "Gal(b1-6)Gal", "result": -0.624}, {"measurement": "glycan array binding signal (z-score)", "setting": "Gal3S(b1-3)GalNAc", "result": 0.08}, {"measurement": "glycan array binding signal (z-score)", "setting": "Gal3S(b1-3)GlcNAc", "result": -0.305}, {"measurement": "glycan array binding signal (z-score)", "setting": "[12]", "result": 0.258}, {"measurement": "glycan array binding signal (z-score)", "setting": "Gal3S(b1-4)Glc", "result": -0.075}, {"measurement": "glycan array binding signal (z-score)", "setting": "Gal3S(b1-4)Glc6S", "result": 0.284}, {"measurement": "glycan array binding signal (z-score)", "setting": "Gal3S(b1-4)GlcNAc", "result": -0.532}, {"measurement": "glycan array binding signal (z-score)", "setting": "[13]", "result": -0.501}, {"measurement": "glycan array binding signal (z-score)", "setting": "[14]", "result": -0.243}, {"measurement": "glycan array binding signal (z-score)", "setting": "[15]", "result": -0.173}, {"measurement": "glycan array binding signal (z-score)", "setting": "Gal3S4S(b1-4)GlcNAc", "result": -0.707}, {"measurement": "glycan array binding signal (z-score)", "setting": "Gal3S6S(b1-4)GlcNAc", "result": -0.427}, {"measurement": "glycan array binding signal (z-score)", "setting": "Gal3S6S(b1-4)GlcNAc6S", "result": -0.326}, {"measurement": "glycan array binding signal (z-score)", "setting": "Gal4S(b1-4)GlcNAc", "result": -0.608}, {"measurement": "glycan array binding signal (z-score)", "setting": "Gal4S6S(b1-4)GlcNAc", "result": -0.103}, {"measurement": "glycan array binding signal (z-score)", "setting": "Gal6P(b1-4)GlcNAc", "result": 0.095}, {"measurement": "glycan array binding signal (z-score)", "setting": "Gal6S(b1-3)GlcNAc", "result": -0.375}, {"measurement": "glycan array binding signal (z-score)", "setting": "Gal6S(b1-3)GlcNAc6S", "result": -0.016}, {"measurement": "glycan array binding signal (z-score)", "setting": "Gal6S(b1-4)Glc", "result": -0.219}, {"measurement": "glycan array binding signal (z-score)", "setting": "Gal6S(b1-4)Glc6S", "result": -0.262}, {"measurement": "glycan array binding signal (z-score)", "setting": "Gal6S(b1-4)GlcNAc", "result": -0.197}, {"measurement": "glycan array binding signal (z-score)", "setting": "Gal6S(b1-4)GlcNAc6S", "result": -0.022}, {"measurement": "glycan array binding signal (z-score)", "setting": "GalNAc(a1-3)Gal", "result": 0.841}, {"measurement": "glycan array binding signal (z-score)", "setting": "GalNAc(a1-3)GalNAc", "result": 0.678}, {"measurement": "glycan array binding signal (z-score)", "setting": "[16]", "result": -0.587}]}
